The values that follow come from paper PMC2991514 (Biochemical pharmacology, 2010).

The target in experiment [1] is T1, human D3 receptor S192A mutant (Homo sapiens, UniProt P35462, S192A).
Another experiment concerns the target WT human D3 receptor (Homo sapiens, UniProt P35462). Kind of experiment: biochemical.
In experiment [2] the target is T1, human D3 receptor S192A mutant. Nature of the experiment: biochemical.

Where two headings read alike, the source gives them in different places.

T1 sequence (P35462 whole entry): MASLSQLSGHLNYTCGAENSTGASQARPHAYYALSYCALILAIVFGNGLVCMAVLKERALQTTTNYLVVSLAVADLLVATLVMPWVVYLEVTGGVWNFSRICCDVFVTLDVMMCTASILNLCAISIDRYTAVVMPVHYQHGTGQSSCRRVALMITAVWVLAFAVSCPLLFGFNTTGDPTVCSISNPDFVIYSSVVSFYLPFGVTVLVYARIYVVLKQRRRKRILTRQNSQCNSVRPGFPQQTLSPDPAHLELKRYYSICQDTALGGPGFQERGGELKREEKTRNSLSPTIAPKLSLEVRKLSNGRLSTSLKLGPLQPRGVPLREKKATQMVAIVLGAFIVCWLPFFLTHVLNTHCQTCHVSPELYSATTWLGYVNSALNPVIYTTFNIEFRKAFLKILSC

In the case of `CCCN(CCC)C1CCc2c(O)cccc2C1` (stereo not drawn) [5-OH-DPAT (D323), 5-OH-DPAT, reference compound], the “Loss of binding activity (increase of Ki) at S192A compared with WT” value in experiment [1] (S192A versus WT hD3) is reported as 18 fold.
As a reminder, the Ki is a dissociation constant, usually derived from enzyme kinetics or from competition with a known ligand. A low value points to higher affinity. `CCCN(CCN1CCN(c2ccc(-c3ccccc3)cc2)CC1)[C@H]1CCc2nc(N)sc2C1` [D264, (S)-N 6-(2-(4-([1,1′-biphenyl]-4-yl)piperazin-1-yl)ethyl)-N 6-propyl-4,5,6,7-tetrahydrobenzo[d]thiazole-2,6-diamine]: in experiment [1], the “Loss of binding activity (increase of Ki) at S192A compared with WT” value was determined as 2 fold. Moreover, the Ki was found to be 5.81 ± 1.22 nM at WT human D3 receptor and 15.5 ± 2 nM in experiment [2].
As to `CCCN(CCN1CCN(c2ccccc2)CC1)[C@@H]1CCc2ccc(O)cc2C1` [D315, (R )-7-((2-(4-phenylpiperazin-1-yl)ethyl)(propyl)amino)-5,6,7,8-tetrahydronaphthalen-2-ol], the inhibitory constant (Ki) on WT human D3 receptor stood at 0.503 ± 0.082 nM; in experiment [2], 3.16 ± 0.55 nM.
